Experimental data: the supplement of paper PMC6609913
Where a name gives a salt, the structure may show the parent alone. ± gives the standard deviation of the averaged measurements. In all, about 1,300 compounds were measured (“normalised cell viability”: median about 1, lowest 2% from about 0.15 on). This is one part of the list.

Test system: V-C8 + BRCA2 (BRCA2-proficient hamster cells)
Test: normalised cell viability (fraction of plate median); higher = more viable cells (less toxic)
Conditions: 5 µM
Outline: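 Library drugs, held as 10 mM stocks in DMSO, were diluted to 5 μM in 100 μl medium and added to 96-well plates of V-C8 hamster cells, either lacking BRCA2 or with BRCA2 restored, 24 h after seeding. Plates ran for 3 days (screen 1) or 6 days (screen 2), alongside solvent-only wells. Viability came from a resazurin readout, median-plate normalised, as the mean of triplicate wells.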

SMILES	normalised cell viability (treatment time: 3 days)	normalised cell viability (treatment time: 6 days)
O=C1CN2Cc3c(ccc(Cl)c3Cl)N=C2N1 [Anagrelide]	1.02 ± 0.018	1.03 ± 0.049
CC(C)NCC(O)COc1ccc(COCCOC(C)C)cc1 (stereo not drawn) [Bisoprolol fumarate]	0.973 ± 0.017	1.19 ± 0.03
Nc1nc(=S)c2ncn([C@@H]3O[C@H](CO)[C@@H](O)[C@H]3O)c2[nH]1 [Thioguanosine]	0.452 ± 0.015	0.404 ± 0.0073
CC(=O)N[C@@H](CC(C)C)C(=O)O [N-Acetyl-L-leucine]	1.04 ± 0.015	1.11 ± 0.046
Nc1nc(=O)c2nc(CNc3ccc(C(=O)N[C@@H](CCC(=O)O)C(=O)O)cc3)cnc2[nH]1 [Folic acid]	1 ± 0.021	1.03 ± 0.1
Nc1nc(F)nc2c1ncn2[C@@H]1O[C@H](CO)[C@@H](O)[C@@H]1O [Fludarabine]	1 ± 0.071	1.03 ± 0.1
CC[C@H]1OC(=O)[C@H](C)[C@@H](O[C@H]2C[C@@](C)(OC)[C@@H](O)[C@H](C)O2)[C@H](C)[C@@H](O[C@@H]2O[C@H](C)C[C@H](N(C)C)[C@H]2O)[C@](C)(O)C[C@@H](C)/C(=N\OCOCCOC)[C@H](C)[C@@H](O)[C@]1(C)O [Roxithromycin]	1 ± 0.025	0.979 ± 0.019
Clc1ccc(C(Cn2ccnc2)OCc2c(Cl)cccc2Cl)c(Cl)c1 (stereo not drawn) [Isoconazole]	1.22 ± 0.042	1.18 ± 0.02
NC(=O)N1c2ccccc2C=Cc2ccccc21 [Carbamazepine]	1.04 ± 0.016	0.9944 ± 0.0025
CN(C)CCN(Cc1cccs1)c1ccccn1 [Methapyrilene hydrochloride]	1.12 ± 0.021	1.04 ± 0.042
COc1c(O[C@@H]2O[C@H](CO)[C@@H](O)[C@H](O)[C@H]2O)cc2c(c1OC)-c1ccc(SC)c(=O)cc1[C@@H](NC(C)=O)CC2 [Thiocolchicoside]	1.01 ± 0.027	1.06 ± 0.022
O=C(Cn1ccnc1[N+](=O)[O-])NCCO [Etanidazole]	1.02 ± 0.091	1.04 ± 0.035
CO[C@H]1/C=C/O[C@@]2(C)Oc3c(C)c(O)c4c(c3C2=O)C2=NC3(CCN(CC(C)C)CC3)NC2=C(NC(=O)/C(C)=C\C=C\[C@H](C)[C@H](O)[C@@H](C)[C@@H](O)[C@@H](C)[C@H](OC(C)=O)[C@@H]1C)C4=O [Rifabutin]	1.01 ± 0.14	0.91 ± 0.043
Cc1scc2c1N(C(=O)CN1CCN(C)CC1)c1ccccc1NC2=O [Telenzepine dihydrochloride]	0.996 ± 0.046	1.07 ± 0.066
Cn1c(=O)c2nc[nH]c2n(C)c1=O [Theophylline monohydrate]	0.884 ± 0.038	1.05 ± 0.12
C=C1c2cccc(O)c2C(=O)C2=C(O)[C@]3(O)C(=O)C(C(N)=O)=C(O)[C@@H](N(C)C)[C@@H]3[C@@H](O)[C@H]12 [Methacycline hydrochloride]	1.14 ± 0.27	1.08 ± 0.029
c1ccc(C2CN3CCSC3=N2)cc1 (stereo not drawn) [Tetramisole hydrochloride]	1.01 ± 0.061	1.08 ± 0.021
CCOC(=O)c1ccc(OC(=O)CCCCCNC(=N)N)cc1 [Gabexate mesilate]	0.943 ± 0.06	0.993 ± 0.04
CCCN[C@H]1CCc2nc(N)sc2C1 [Pramipexole]	0.9625 ± 0.0076	0.987 ± 0.022
Cc1cc(=O)oc2cc(O)ccc12 [Hymecromone]	1 ± 0.032	1.13 ± 0.042
COc1ccc(CN(CCN(C)C)c2ccccn2)cc1 [Pyrilamine maleate]	1.02 ± 0.064	1 ± 0.082
CCCNC(C)C(=O)Nc1ccccc1C (stereo not drawn) [Prilocaine hydrochloride]	1.04 ± 0.031	1.04 ± 0.025

SMILES	normalised cell viability (treatment time: 3 days)	normalised cell viability (treatment time: 6 days)
CC(COc1ccccc1)N(CCCl)Cc1ccccc1 (stereo not drawn) [Phenoxybenzamine hydrochloride]	0.991 ± 0.045	0.936 ± 0.015
CC(=O)c1ccc(S(=O)(=O)NC(=O)NC2CCCCC2)cc1 [Acetohexamide]	1.22 ± 0.019	1.025 ± 0.0097
CCCCC[C@H](O)/C=C/[C@@H]1[C@@H](C/C=C\CCCC(=O)O)[C@@H](O)C[C@H]1O [Dinoprost trometamol]	1.09 ± 0.087	0.975 ± 0.06
CCOC(=O)OC(C)OC(=O)[C@@H]1N2C(=O)[C@@H](NC(=O)[C@H](N)c3ccccc3)[C@H]2SC1(C)C (stereo partly drawn) [Bacampicillin hydrochloride]	1 ± 0.027	1.08 ± 0.096
CCOC(=O)[C@H](CCc1ccccc1)N[C@H]1CCc2ccccc2N(CC(=O)O)C1=O [Benazepril HCl]	1.03 ± 0.018	1.07 ± 0.029
COC1=C(OC)C(=O)C(CCCCCCCCCCO)=C(C)C1=O [Idebenone]	0.679 ± 0.047	0.699 ± 0.095
NCCCC[C@H](N[C@@H](CCc1ccccc1)C(=O)O)C(=O)N1CCC[C@H]1C(=O)O [Lisinopril]	1.02 ± 0.025	1.07 ± 0.073
CC(C)(C)NC[C@H](O)COc1nsnc1N1CCOCC1 [Timolol maleate salt]	1.06 ± 0.072	0.943 ± 0.042
O=C(Nc1cccc2c(=O)cc(-c3nnn[nH]3)oc12)c1ccc(OCCCCc2ccccc2)cc1 [Pranlukast]	1.06 ± 0.05	1.08 ± 0.049
O=C(O)Cc1ccccc1Nc1c(Cl)cccc1Cl [Diclofenac sodium]	1.02 ± 0.081	0.9903 ± 0.0069
C[C@@H](c1ncncc1F)[C@](O)(Cn1cncn1)c1ccc(F)cc1F [Voriconazole]	0.963 ± 0.037	1.04 ± 0.11
CN1CCN(CCCN2c3ccccc3Sc3ccc(S(=O)(=O)N(C)C)cc32)CC1 [Thioproperazine dimesylate]	0.884 ± 0.11	0.834 ± 0.039
CC(=O)Oc1cc(C(F)(F)F)ccc1C(=O)O [Triflusal]	0.996 ± 0.035	1.05 ± 0.011
O=c1[nH]cc(F)c(=O)[nH]1 [5-fluorouracil]	0.384 ± 0.0096	0.358 ± 0.016
C[C@]12C=CC(=O)C=C1CC[C@@H]1[C@@H]2[C@@H](O)C[C@@]2(C)[C@H]1CC[C@]2(O)C(=O)CO [Prednisolone]	1.07 ± 0.076	0.968 ± 0.044
CC(C)Cc1ccc([C@H](C)C(=O)O)cc1 [S-(+)-ibuprofen]	1.01 ± 0.04	0.864 ± 0.076
CS(=O)(=O)c1ccc([C@@H](O)[C@@H](CO)NC(=O)C(Cl)Cl)cc1 [Thiamphenicol]	0.9701 ± 0.0087	0.927 ± 0.02
NS(=O)(=O)c1cc2c(cc1Cl)N=C(CSCc1ccccc1)NS2(=O)=O [Benzthiazide]	0.988 ± 0.033	1.01 ± 0.13
O=C1C(CC[S+]([O-])c2ccccc2)C(=O)N(c2ccccc2)N1c1ccccc1 (stereo not drawn) [Sulfinpyrazone]	0.996 ± 0.025	0.978 ± 0.034
CC(=O)O[C@]1(C(C)=O)CC[C@H]2[C@@H]3C=C(C)C4=CC(=O)CC[C@@H]4[C@H]3CC[C@@]21C [Nomegestrol acetate]	1 ± 0.029	1.06 ± 0.063
CO[C@@]1(NC(=O)C(C(=O)O)c2ccc(O)cc2)C(=O)N2C(C(=O)O)=C(CSc3nnnn3C)CO[C@@H]21 (stereo partly drawn) [Moxalactam disodium salt]	1.08 ± 0.038	1.06 ± 0.032
C#C[C@]1(O)CC[C@H]2[C@@H]3CCC4=CC(=O)CC[C@@H]4[C@H]3CC[C@@]21C [Norethindrone]	0.951 ± 0.039	1 ± 0.054

SMILES	normalised cell viability (treatment time: 3 days)	normalised cell viability (treatment time: 6 days)
C#C[C@]1(OC(C)=O)CC[C@H]2[C@@H]3CCC4=C[C@@H](OC(C)=O)CC[C@@H]4[C@H]3CC[C@@]21C [Ethynodiol diacetate]	1.1 ± 0.11	0.91 ± 0.16
Nc1ccc(S(=O)(=O)Nc2ncccn2)cc1 [Sulfadiazine]	1.01 ± 0.068	1.024 ± 0.0048
Clc1ccccc1CN1CCc2sccc2C1 [Ticlopidine hydrochloride]	1.09 ± 0.027	1.01 ± 0.068
CCN(CC)CCOC(=O)C1(c2ccc([N+](=O)[O-])cc2)CCCC1 [Nitrocaramiphen hydrochloride]	1.06 ± 0.024	1.038 ± 0.0056
Nc1ccc(O)c(C(=O)O)c1 [Mesalamine]	1.03 ± 0.044	0.922 ± 0.28
Cc1cc(C(C)(C)CC(C)(C)C)ccc1OCCOCC[N+](C)(C)Cc1ccccc1 [Methyl benzethonium chloride]	0.954 ± 0.036	0.915 ± 0.052
Cc1cc(NC(=O)C2=C(O)c3ccccc3S(=O)(=O)N2C)no1 [Isoxicam]	1.11 ± 0.065	1.05 ± 0.068
CN(C)CCCN1c2ccccc2CCc2ccc(Cl)cc21 [Clomipramine hydrochloride]	0.911 ± 0.017	0.97 ± 0.024
CO[C@@]1(NC(=O)C2SC(=C(C(N)=O)C(=O)O)S2)C(=O)N2C(C(=O)O)=C(CSc3nnnn3C)CS[C@@H]21 (stereo partly drawn) [Cefotetan]	0.907 ± 0.075	0.966 ± 0.065
COC(=O)C1=C(C)NC(C)=C(C(=O)OC)C1c1ccccc1[N+](=O)[O-] [Nifedipine]	0.997 ± 0.023	0.981 ± 0.042
CC(C)NCC(O)c1ccc(NS(C)(=O)=O)cc1 (stereo not drawn) [Sotalol hydrochloride]	0.971 ± 0.029	1.02 ± 0.024
C#C[C@]1(O)CC[C@H]2[C@@H]3CCc4cc(OC)ccc4[C@H]3CC[C@@]21C [Ethynylestradiol 3-methyl ether]	0.955 ± 0.033	0.942 ± 0.077
CN(CCOc1ccc(NS(C)(=O)=O)cc1)CCc1ccc(NS(C)(=O)=O)cc1 [Dofetilide]	1.02 ± 0.016	1.05 ± 0.054
CC(=O)N1CCN(c2ccc(OCC3COC(Cn4ccnc4)(c4ccc(Cl)cc4Cl)O3)cc2)CC1 (stereo not drawn) [Ketoconazole]	0.945 ± 0.039	1.07 ± 0.05
CCN(CC)CCCC(C)Nc1c2ccc(Cl)cc2nc2ccc(OC)cc12 (stereo not drawn) [Quinacrine dihydrochloride dihydrate]	0.133 ± 0.0038	0.107 ± 0.0083
CCCCCCCCCCCCCCCC[N+](C)(C)CCN(Cc1ccc(OC)cc1)c1ncccn1 [Thonzonium bromide]	0.787 ± 0.094	0.74 ± 0.19
COC(=O)[C@H]1[C@H]2C[C@@H]3c4[nH]c5cc(OC)ccc5c4CCN3C[C@H]2C[C@@H](OC(=O)c2cc(OC)c(OC)c(OC)c2)[C@@H]1OC [Reserpine]	0.82 ± 0.083	0.928 ± 0.078
CC(C)C[C@H](NC(=O)[C@@H](O)[C@H](N)Cc1ccccc1)C(=O)O [Ubenimex]	1.01 ± 0.013	1.01 ± 0.013
CNC(=C[N+](=O)[O-])NCCSCc1ccc(CN(C)C)o1 [Ranitidine hydrochloride]	0.992 ± 0.018	1.02 ± 0.037
CCOC(=O)Nc1ccc2c(c1)N(C(=O)CCN1CCOCC1)c1ccccc1S2 [Moricizine hydrochloride]	1.09 ± 0.036	1.16 ± 0.12
